# Measurements: the BET-seq Pho4 binding data (Le et al. 2018)
# The list shows a part of the results. The energies were worked out here from pooled read counts, against the library average; single values are noisy.
# Target: T1, Pho4 (S. cerevisiae) (UniProt P07270)
# T1 sequence: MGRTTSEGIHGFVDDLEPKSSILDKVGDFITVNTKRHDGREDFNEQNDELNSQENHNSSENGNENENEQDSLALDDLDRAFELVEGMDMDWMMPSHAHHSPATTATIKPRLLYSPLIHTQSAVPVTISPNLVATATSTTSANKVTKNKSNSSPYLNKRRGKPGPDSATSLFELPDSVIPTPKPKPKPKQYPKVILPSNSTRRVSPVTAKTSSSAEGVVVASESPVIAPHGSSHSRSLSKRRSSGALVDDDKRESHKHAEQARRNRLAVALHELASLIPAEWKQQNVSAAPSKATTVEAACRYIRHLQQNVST
# Assay: relative binding free energy (BET-seq); higher = weaker binding
# Details: reference: library average
row,Sequence,relative binding free energy
1,CATCGCACGTGGGGGC,-0.18 kcal/mol
2,AAAGACACGTGGTGTG,-0.06 kcal/mol
3,GTACGCACGTGGGTCT,-0.18 kcal/mol
4,TAAGTCACGTGGTTAA,0 kcal/mol
5,AGTTTCACGTGATAAG,0.25 kcal/mol
6,GAATCCACGTGTAGGG,0.14 kcal/mol
7,AGGTCCACGTGTAGTA,0.07 kcal/mol
8,TGAGCCACGTGATGTT,0.12 kcal/mol
9,GTAATCACGTGGTCGT,0.08 kcal/mol
10,GATTACACGTGTTTAG,-0.05 kcal/mol
11,TTTTACACGTGACTGG,0.19 kcal/mol
12,TTTTGCACGTGGTCGG,-0.09 kcal/mol
13,GTGTGCACGTGCCTTG,-0.13 kcal/mol
14,TGGTTCACGTGCATAA,0.21 kcal/mol
15,TTCTACACGTGGTATT,-0.06 kcal/mol
16,AGTGGCACGTGTGCGA,-0.24 kcal/mol
17,TTTTTCACGTGTCCTG,0.19 kcal/mol
18,TATGACACGTGGTATT,-0.04 kcal/mol
19,TAAGACACGTGAAGTG,0.28 kcal/mol
20,GATTTCACGTGCGGTC,0.28 kcal/mol
21,GGACGCACGTGATTTG,0.14 kcal/mol

row,Sequence,relative binding free energy
1,TTCTTCACGTGCGTTG,0.21 kcal/mol
2,CGTTTCACGTGGGCTG,0.1 kcal/mol
3,AGGTGCACGTGTAGGG,-0.01 kcal/mol
4,TGTCTCACGTGGGTAA,-0.06 kcal/mol
5,GGTTACACGTGTTGTG,0.06 kcal/mol
6,GTGGACACGTGTGCTG,-0.13 kcal/mol
7,CGGAGCACGTGTGGGG,-0.1 kcal/mol
8,ATCGTCACGTGGGGGA,0.03 kcal/mol
9,TATATCACGTGGTAGG,0.09 kcal/mol
10,TGAAACACGTGGGCGT,-0.12 kcal/mol
11,TGTTTCACGTGGTGCG,0.2 kcal/mol
12,TTGGTCACGTGGGGCT,0.04 kcal/mol
13,CTTGACACGTGGTATT,-0.1 kcal/mol
14,TTCGTCACGTGAGGCT,0.36 kcal/mol
15,TGTACCACGTGAGTTG,0.1 kcal/mol
16,CGGGGCACGTGTTCAT,-0.05 kcal/mol
17,ACTTTCACGTGGGGAG,0.06 kcal/mol
18,GTAGGCACGTGGAGAA,-0.07 kcal/mol
19,TTGTTCACGTGGGTGG,0.24 kcal/mol
20,TGTTTCACGTGGGCCG,0.19 kcal/mol
21,ATAAACACGTGGTTAG,-0.01 kcal/mol

row,Sequence,relative binding free energy
1,GCTAACACGTGGTTGT,0.04 kcal/mol
2,TGGAACACGTGGAGAA,0.18 kcal/mol
3,GTGCTCACGTGTGGTC,0.27 kcal/mol
4,AAAGGCACGTGATATT,0.07 kcal/mol
5,GATTGCACGTGAATTT,0.35 kcal/mol
6,TTGTTCACGTGCTGAG,0.25 kcal/mol
7,ATGGCCACGTGTCAGT,-0.03 kcal/mol
8,CCGGACACGTGGTGTG,-0.11 kcal/mol
9,ATGTACACGTGGGTTA,-0.03 kcal/mol
10,GGAGGCACGTGTTTCA,0.12 kcal/mol
11,GGAGGCACGTGGCTTT,-0.06 kcal/mol
12,GCTGGCACGTGTTGAG,-0.09 kcal/mol
13,TTAGGCACGTGACTTA,-0.04 kcal/mol
14,ATGGCCACGTGAAGGC,0.36 kcal/mol
15,GTGACCACGTGTTAGG,-0.07 kcal/mol
16,CTATGCACGTGGAGTG,-0.13 kcal/mol
17,TTTACCACGTGAGATG,0.43 kcal/mol
18,GCGTGCACGTGTGATA,0.09 kcal/mol
19,TGTGGCACGTGTAACA,0.06 kcal/mol
20,GTTATCACGTGGTTAG,0.11 kcal/mol
21,CATGTCACGTGATTTT,0.18 kcal/mol
